Laboratory results published in PubChem BioAssay AID686979 (National Center for Advancing Translational Sciences (NCATS), 2013).
Values joined by “and” are separate entries in the source; they are usually repeats but may differ in a detail not shown here. Identical values can stand only once. About 50,000 (12%) of roughly 420,000 compounds were called active. Inconclusive means that the source gave no clear call. Such entries were picked first, then a sample of the others. Calls come from the whole dose curve; as a rule, active = well fitted inhibition curve with a large enough effect; inconclusive = small, poorly fitted or top-dose-only effect; inactive = flat fitted curve, though single readings scatter. Potencies of inconclusive entries are doubtful fits and often do not repeat.

Assay: qHTS for Inhibitors of human tyrosyl-DNA phosphodiesterase 1 (TDP1): qHTS in cells in presence of CPT; note: nearly all actives have a fitted effect of over 55% in size
Details: chicken DT40 Tdp1-/-;hTDP1 cells + 20 nM CPT, ATP luminescence, 48 h; activity change, negative = growth inhibition: at 46.2 µM (top of the series) unless noted
Summary of the method: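 Chicken DT40 Tdp1-/- cells complemented with human TDP1, 400 cells/well, exposed to compounds plus 20 nM camptothecin for at least 48 h at 37 C; viability read as ATP content by CellTiter-Glo luminescence.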
% is set by controls: 0 for no effect and ±100 for the full control effect; potency is the fitted concentration of half-maximal effect; tags give direction and shape of the fitted curve.

SMILES	Potency	activity change, negative = growth inhibition
OCCN1CCN(c2ncnc3c2ncn3[C@H]2CN(Cc3ccc(-c4ccccc4)cc3)C[C@@H](CO)O2)CC1	active: 5.17 µM	–
COc1ccc2occ(C(=O)c3ccc(N=C(C)N(C)C)cc3)c2c1	active: 16.4 µM	–
COc1ccc(Cl)cc1NC(=O)CSc1nc(NS(=O)(=O)c2ccc(C)cc2)cc(=O)[nH]1	inconclusive: 18.4 µM [inhibitor, single point]	–
CCN(CC)CCNc1cccc2sc3ccccc3c(=O)c12	active: 23.1 µM	–
Cc1ccc(S(=O)(=O)N2CCOC23CCN(C(=O)C(=O)NCc2ccccc2)CC3)cc1	inconclusive: 20.6 µM [inhibitor, partial curve]	–
CC(OC(=O)c1ccc(Br)o1)C(=O)Nc1ccc2c(c1)OCCO2 (stereo unspecified)	inconclusive: 29.1 µM [inhibitor, single point]	–
O=C(Cc1ccc(N2CCNC2=O)cc1)N1CCCC(Nc2cccc(F)c2)C1 (stereo unspecified)	active: 2.91 µM	–
CCOC(=O)c1scc(-c2ccc(C)cc2)c1S(=O)(=O)N1CCN(c2ccccc2F)CC1	active: 14.6 µM	–
O=C1NC[C@H](Cc2ccccc2)N(C[C@@H]2CCCN2C[C@H](Cc2ccc(O)cc2)N2C[C@H](Cc3ccc(O)cc3)N(CC3CCCCC3)C(=O)C2=O)C1=O	inconclusive: 20.6 µM [inhibitor, single point]	–
Cc1cccc(NC(=O)C(=O)NCC(c2cccnc2)N2CCc3ccccc3C2)c1C (stereo unspecified)	active: 16.4 µM	–
OC[C@H]1O[C@@H](c2nc(-c3ccccc3Br)no2)[C@H](O)[C@@H]1O	active: 0.517 µM	–
CCN(CC(=O)Nc1ccc2c(c1)OCCO2)C(=O)c1ccc(CS(C)(=O)=O)cc1	–	inactive: -6.56%
Cc1cccc(C)c1-c1ccc(CN2C(CC(C)C)C(=O)N(Cc3cn(CC4CCCCC4)nn3)CCS2(=O)=O)cc1 (stereo unspecified)	inconclusive: 29.1 µM [inhibitor, single point]	–
CSc1nc2nc3c(cc2c(=O)n1-c1cccc(C)c1)COC(C)(C)C3	inconclusive: 29.1 µM [inhibitor, single point]	–
CCN(CCCNS(=O)(=O)c1cc(-c2cc(C)no2)ccc1C)Cc1ccccc1	inconclusive: 23.1 µM [inhibitor, single point]	–
O=C(C1CCC1)N1CCc2cc(S(=O)(=O)N3CCN(c4ccccn4)CC3)ccc21	inconclusive: 25.9 µM [inhibitor, single point]	–
O=C(Cc1cccs1)N=Nc1c(O)[nH]c2ccc(Br)cc12	active: 25.9 µM	–
C1CCN(CCCNC2C3CC4CC(C3)CC2C4)C1 (stereo unspecified)	inconclusive: 29.1 µM [inhibitor, single point]	–
COc1ccc(OC)c(NC(=O)c2cc(S(=O)(=O)NCCc3ccc(Cl)cc3)ccc2F)c1	inconclusive: 20.6 µM [inhibitor, single point]	–
COC1=CC(=O)C=C(OC)C1(O)CC(C)=O	active: 4.11 µM	–
Cc1n[nH]c(C)c1N1C(=O)c2cccc3cc(Br)cc(c23)C1=O	inconclusive: 16.4 µM [inhibitor, partial curve]	–
Cc1cccc(N2C(=O)CC(Sc3ncn[nH]3)C2=O)c1 (stereo unspecified)	active: 1.84 µM	–
CC1CCCN(C(=O)C2CCN(c3ncnc4c3nc3n4CCCCC3)CC2)C1 (stereo unspecified)	inconclusive: 25.9 µM [inhibitor, single point]	–
C=CCn1c(SC/C=C/c2ccccc2)nnc1-c1sc(N)nc1C	inconclusive: 5.8 µM [inhibitor, partial curve, poor fit]	–

SMILES	Potency	activity change, negative = growth inhibition
O=C(CCCSc1ccccc1)Nc1nc(-c2ccco2)c(-c2ccco2)s1	inconclusive: 29.1 µM [inhibitor, single point]	–
O=C(CCc1ccccc1)NNC(=O)Cc1ccccc1	–	inactive: -3.17%
c1ccc(Nc2ncnc3sc4c(c23)CCC4)cc1	inconclusive: 23.1 µM [inhibitor, single point]	–
CCN(CC)CCCNC(=O)C1CCN(C(=O)c2cc3sccc3n2Cc2ccc(F)cc2)CC1	–	inactive: -20.6%
Nc1cc(=O)[nH]c(N)n1	inconclusive: 9.2 µM [inhibitor, partial curve, poor fit]	–
CCOc1ccc(CCNC(=O)c2sc3ncccc3c2-n2cccc2)cc1OCC	active: 25.9 µM	–
COC(=O)c1ccc(-c2nc3cc(NC(C)=O)ccc3o2)cc1	–	inactive: -5.85%
O=C(CSc1nnc(CCc2ccccc2)n1-c1ccc(Cl)cc1)c1ccccc1	inconclusive: 18.4 µM [inhibitor, single point]	–
COc1cc(CCC(=O)Nc2ccc(Br)c(C(F)(F)F)c2)cc(OC)c1OC	active: 18.4 µM	–
CC1=NN(C(N)=S)C(=O)C1N=Nc1cccc(Cl)c1C (stereo unspecified)	active: 13 µM	–
O=c1oc(CCO)cc2ccc(C#Cc3ccsc3)cc12	inconclusive: 20.6 µM [inhibitor, single point]	–
CC(=O)C(Sc1nn(C)c(=S)s1)C(=O)Nc1ccccc1 (stereo unspecified)	–	inactive: -3.21%
Cc1nc2nc(SCC(=O)NC3CCC(C)CC3)nn2c(C)c1Cc1ccccc1 (stereo unspecified)	active: 18.4 µM	–
COc1ccc(Cl)cc1C(=O)NNC(=S)NC(=O)c1cc(-c2ccccc2)nc2ccccc12	inconclusive: 20.6 µM [inhibitor, single point]	–
CCOc1ccc(OCC)c(NC(=O)c2ccc(-c3ccccc3)s2)c1	inconclusive: 25.9 µM [inhibitor, single point]	–
C=C(C)c1cccc(C(C)(C)NC(=O)N2CCCC2)c1	–	inactive: -6.67%
O=C(CSc1nnc(-c2cccs2)n1-c1ccccc1)N1CCOCC1	–	inactive: -3.88%
CCN(CC(=O)Nc1ccc(NC(C)=O)cc1)C(=O)c1ccc2c(c1)S(=O)(=O)N=C1CCCCCN12	–	inactive: -1.29%
CCOC(=O)c1c(C)[nH]c(C(=O)OC(C)C(=O)Nc2ccc(C)cc2)c1C (stereo unspecified)	–	inactive: -27.1%
CN(C)C(=O)C1(c2ccccc2)CCN(S(=O)(=O)c2ccccc2)CC1	inconclusive: 20.6 µM [inhibitor, single point]	–
CCCN(c1ccc(C(C)C)cc1)S(=O)(=O)c1ccc2c(c1)oc(=O)n2CC(=O)OCC	inconclusive: 23.1 µM [inhibitor, single point]	–
COc1ccc(-n2c(=O)c3ccccc3n(Cc3cccc(C)c3)c2=O)cc1	inconclusive: 5.8 µM [inhibitor, full curve]	–
CCN1CCN(C(=O)c2cnn3c(C(F)F)cc(-c4ccc(C)cc4)nc23)CC1	–	inactive: -19.3%
Cc1ccc(N2C(=O)CSC2c2c(F)cccc2Cl)cc1 (stereo unspecified)	inconclusive: 11.6 µM [inhibitor, partial curve]	–

SMILES	Potency	activity change, negative = growth inhibition
Cc1cnc(CN(C)C(=O)c2ccc3oc(Cc4ccc(Cl)cc4)nc3c2)[nH]1	inconclusive: 23.1 µM [inhibitor, single point]	–
O=S(=O)(Nc1cccc(-c2cn3cccnc3n2)c1)c1ccccc1	inconclusive: 32.6 µM [inhibitor, single point]	–
COc1ccc(-c2cc(=O)oc3c(C)c(OC(=O)c4cccs4)ccc23)cc1	active: 3.66 µM	–
O=C1c2ccccc2C(=O)N1CCCc1nc2ccccc2c(=O)n1CCCn1ccnc1	inconclusive: 29.1 µM [inhibitor, single point]	–
O=C(COC(=O)[C@@H]1CCCN1S(=O)(=O)c1ccc(Cl)cc1)NCC(F)(F)F	–	inactive: -1.83%
COc1ccccc1N1CCN(C(=O)c2cc(S(=O)(=O)N3CCC(C)CC3)cn2C)CC1	active: 20.6 µM	–
CCOC(=O)c1ccc(N=c2sc(C(=O)OC)cc(=O)n2Cc2ccco2)cc1	active: 13 µM	–
COc1ccc(C(=O)Cn2nnc(-c3ccc(N4CCOCC4)cc3)n2)cc1OC	–	inconclusive: -32.7% [inhibitor]
O=S1(=O)CC/C(=N\Nc2ccc(F)cc2)c2ccsc21	inconclusive: 23.1 µM [inhibitor, partial curve]	–
CCOC(=O)c1sc2nc(C)nc(SCC(=O)N(C)C3CCS(=O)(=O)C3)c2c1C (stereo unspecified)	inconclusive: 29.1 µM [inhibitor, single point]	–
C(=N\Nc1ncnc2ccccc12)/c1ccccc1	active: 3.66 µM	–
O=C1c2cccc3cccc(c23)C(c2nc3ccccc3[nH]2)N1C1CC1 (stereo unspecified)	–	inactive: -11.9%
O=C(CCN1CCOCC1)Nc1cc(C(=O)Nc2ccc(Cl)cc2)ccc1N1CC2CC(C1)c1cccc(=O)n1C2 (stereo unspecified)	inconclusive: 29.1 µM [inhibitor, single point]	–
Cc1cccc(OCc2n[nH]c(=S)o2)c1C	–	inactive: -12.4%
COc1ccc(Cl)cc1-c1n[nH]c(=S)o1	inconclusive: 29.1 µM [inhibitor, single point]	–
COc1cc2c(-c3cc(Br)ccc3O)nc3c(c(C)nn3-c3ccccc3)c2cc1OC	inconclusive: 16.4 µM [inhibitor, single point]	–
CN(C)CCCN(C(=O)c1ccc(S(=O)(=O)N(C)C2CCCCC2)cc1)c1nc2ccc(F)cc2s1	active: 16.4 µM	–
COc1ccc(OC)c(CCNC(=O)CCC(=O)N2CCOc3ccc(C)cc32)c1	active: 23.1 µM	–
COc1ccccc1NC(=O)Nc1ccccc1Br	active: 18.4 µM	–
O=C(N/C=C/c1ccco1)OCc1ccccc1	inconclusive: 25.9 µM [inhibitor, single point]	–
CC12CC3CC(C)(C1)CC(C(=O)NNC(=O)c1ccncc1)(C3)C2	–	inactive: -12.6%
O=C(Nc1nnc(S(=O)(=O)Nc2ccccc2)s1)C1CCCCC1	inconclusive: 25.9 µM [inhibitor, single point] and inconclusive: 14.6 µM [inhibitor, partial curve]	–
CCOC(=O)c1ccc(N2C(=O)c3n[nH]c(C)c3C2c2ccc(OCC)cc2)cc1 (stereo unspecified)	inconclusive: 18.4 µM [inhibitor, single point]	–
